From the supplement of paper PMC8728848 come the findings set out here.

The other results are listed elsewhere or left out.

Common to all, as to experiment: glycan array binding signal (z-score within array); higher = stronger binding
Conditions in all cases: glycan notation: IUPAC condensed, linker removed

One test has as its target GlcNAc(b1-6)GalNAc. In a few lines: (§1)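 Arrays were curated from the Consortium for Functional Glycomics database, 3228 in total, and kept only where the protein sequence was available. Binding is expressed as a within-array Z-score. This score was averaged across arrays of the same protein sequence at different concentrations or buffers and across linkers, and negative values can be read as non-binding.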

The target of test [1] is GlcNAc6S(b1-3)Gal(b1-4)GlcNAc. The method in brief:
as §1

The next test deals with Kdn(a2-3)Gal(b1-3)GalNAc. The method in brief:
as §1

A further test addresses Kdn(a2-3)Gal(b1-3)GlcNAc. In a few lines:
as §1

For another test, the target named is Kdn(a2-3)Gal(b1-4)Glc. The method in brief:
as §1

For the next test, the target named is Kdn(a2-3)Gal(b1-4)GlcNAc. The method in brief: as §1
Test [2] concerns the target Kdn(a2-3)Gal(b1-4)[Fuc(a1-3)]GlcNAc. The method in brief: as §1
In the next test the target is Kdn(a2-6)Gal(b1-4)GlcNAc. In a few lines: as §1
Test [3] has as its target Man(a1-2)Man(a1-2)Man(a1-3)Man. The method in brief: as §1
Test [4] concerns the target Man(a1-2)Man(a1-2)Man(a1-3)[Man(a1-2)Man(a1-3)[Man(a1-2)Man(a1-6)]Man(a1-6)]Man(b1-4)GlcNAc(b1-4)GlcNAc. In a few lines:
as §1

Test [5] deals with Man(a1-2)Man(a1-2)Man(a1-3)[Man(a1-2)Man(a1-6)[Man(a1-3)]Man(a1-6)]Man(b1-4)GlcNAc(b1-4)GlcNAc. In a few lines:
as §1

Test [6] deals with Man(a1-2)Man(a1-2)Man(a1-6)[Man(a1-3)]Man. The method in brief: as §1
A further test addresses Man(a1-2)Man(a1-3)Man. In a few lines: as §1
Test [7] addresses Man(a1-2)Man(a1-3)[Man(a1-2)Man(a1-6)]Man. In a few lines:
as §1

For test [8], the target named is Man(a1-2)Man(a1-3)[Man(a1-2)Man(a1-6)]Man(a1-6)[Man(a1-2)Man(a1-2)Man(a1-3)]Man. In a few lines:
as §1

In test [9] the target is Man(a1-2)Man(a1-3)[Man(a1-2)Man(a1-6)]Man(a1-6)[Man(a1-2)Man(a1-2)Man(a1-3)]Man(b1-4)GlcNAc(b1-4)GlcNAc. The method in brief: as §1
Test [10] concerns the target Man(a1-2)Man(a1-3)[Man(a1-3)[Man(a1-6)]Man(a1-6)]Man(b1-4)GlcNAc(b1-4)GlcNAc. The method in brief:
as §1

For test [11], the target named is Man(a1-2)Man(a1-3)[Man(a1-6)]Man(a1-6)[Man(a1-2)Man(a1-3)]Man(b1-4)GlcNAc(b1-4)GlcNAc. The method in brief:
as §1

Test [12] has as its target Man(a1-2)Man(a1-6)[Man(a1-3)]Man(a1-6)[Man(a1-2)Man(a1-2)Man(a1-3)]Man. In a few lines:
as §1

Test [13] deals with Man(a1-2)Man(a1-6)[Man(a1-3)]Man(a1-6)[Man(a1-2)Man(a1-2)Man(a1-3)]Man(b1-4)GlcNAc(b1-4)GlcNAc. In a few lines: as §1
The target of the next test is Man(a1-3)[Man(a1-6)]Man. The method in brief:
as §1

Test [14] deals with Man(a1-3)[Man(a1-6)]Man(a1-6)[Man(a1-2)Man(a1-3)]Man(b1-4)GlcNAc(b1-4)GlcNAc. The method in brief: as §1

B1: AAA (Anguilla anguilla), Q7SIC1 (protein)
chain: VIPEGYTQENVAVRGKATQSAQLRGEHAANSEASNAIDGNRDSNFYHGSCTHSSGQANPWWRVDLLQVYTITSVTITNRGDCCGERISGAEINIGQHLASNGVNNPECSVIGSMATGETKTFHCPAPMIGRYVVTYLPTSESLHLCEVEVNVDKPAAA
On to B1, for which the “glycan array binding signal (z-score)” value with GlcNAc(b1-6)GalNAc was -0.088; in [1], -0.18; in the test with Kdn(a2-3)Gal(b1-3)GalNAc, -0.023; with Kdn(a2-3)Gal(b1-3)GlcNAc, -0.157; with Kdn(a2-3)Gal(b1-4)Glc, -0.219; with Kdn(a2-3)Gal(b1-4)GlcNAc, -0.3. Also, the “glycan array binding signal (z-score)” value is -0.051 in [2]; -0.187 in the test with Kdn(a2-6)Gal(b1-4)GlcNAc; -0.097 in [3]; -1.19 in test [4]; 0.733 in [5]; -0.028 in test [6]. Besides, the “glycan array binding signal (z-score)” value in the test with Man(a1-2)Man(a1-3)Man is -0.072; in test [7] it was -0.229; in test [8] it was -0.252; in [9] it was 0.151; in [10], -0.106; in test [11] it was -0.183. Besides, the “glycan array binding signal (z-score)” value in test [12] was -0.079; in [13] it was -0.323; with Man(a1-3)[Man(a1-6)]Man, -0.178; in [14], 1.55.
